In the supplement of paper PMC8728848:
The list shows a part of the results.

Tests used:
Experiment in all cases: glycan array binding signal (z-score within array); higher = stronger binding
Conditions in all cases: glycan notation: IUPAC condensed, linker removed
Fuc(a1-2)Gal = target: Fuc(a1-2)Gal
Method in brief: (§1)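 Arrays were curated from the Consortium for Functional Glycomics database, 3228 in total, and kept only where the protein sequence was available. Binding is expressed as a within-array Z-score. This score was averaged across arrays of the same protein sequence at different concentrations or buffers and across linkers, and negative values can be read as non-binding.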

Fuc(a1-2)Gal(b1-3)GalNAc = target: Fuc(a1-2)Gal(b1-3)GalNAc
Method in brief: as §1

[1] = target: Fuc(a1-2)Gal(b1-3)GalNAc(a1-3)[Fuc(a1-2)]Gal(b1-4)Glc
Method in brief: as §1

[2] = target: Fuc(a1-2)Gal(b1-3)GalNAc(a1-3)[Fuc(a1-2)]Gal(b1-4)GlcNAc
Method in brief: as §1

[3] = target: Fuc(a1-2)Gal(b1-3)GalNAc(b1-3)Gal
Method in brief: as §1

[4] = target: Fuc(a1-2)Gal(b1-3)GalNAc(b1-3)Gal(a1-4)Gal(b1-4)Glc
Method in brief: as §1

[5] = target: Fuc(a1-2)Gal(b1-3)GalNAc(b1-4)[Neu5Ac(a2-3)]Gal(b1-4)Glc
Method in brief: as §1

Fuc(a1-2)Gal(b1-3)GlcNAc = target: Fuc(a1-2)Gal(b1-3)GlcNAc
Method in brief: as §1

[6] = target: Fuc(a1-2)Gal(b1-3)GlcNAc(b1-2)Man(a1-3)[Fuc(a1-2)Gal(b1-3)GlcNAc(b1-2)Man(a1-6)]Man(b1-4)GlcNAc(b1-4)GlcNAc
Method in brief: as §1

[7] = target: Fuc(a1-2)Gal(b1-3)GlcNAc(b1-2)Man(a1-3)[Fuc(a1-2)Gal(b1-3)GlcNAc(b1-2)Man(a1-6)]Man(b1-4)GlcNAc(b1-4)[Fuc(a1-6)]GlcNAc
Method in brief: as §1

[8] = target: Fuc(a1-2)Gal(b1-3)GlcNAc(b1-3)Gal(b1-4)Glc
Method in brief: as §1

[9] = target: Fuc(a1-2)Gal(b1-3)GlcNAc(b1-3)GalNAc
Method in brief: as §1

[10] = target: Fuc(a1-2)Gal(b1-3)GlcNAc(b1-3)[Fuc(a1-3)[Gal(b1-4)]GlcNAc(b1-6)]Gal(b1-4)Glc
Method in brief: as §1

[11] = target: Fuc(a1-2)Gal(b1-3)GlcNAc(b1-3)[Gal(b1-4)GlcNAc(b1-6)]Gal(b1-4)Glc
Method in brief: as §1

[12] = target: Fuc(a1-2)Gal(b1-3)GlcNAc(b1-3)[Neu5Ac(a2-6)Gal(b1-4)GlcNAc(b1-6)]Gal(b1-4)Glc
Method in brief: as §1

[13] = target: Fuc(a1-2)Gal(b1-3)[Fuc(a1-4)]GlcNAc
Method in brief: as §1

[14] = target: Fuc(a1-2)Gal(b1-3)[Fuc(a1-4)]GlcNAc(b1-2)Man(a1-3)[Fuc(a1-2)Gal(b1-3)[Fuc(a1-4)]GlcNAc(b1-2)Man(a1-6)]Man(b1-4)GlcNAc(b1-4)GlcNAc
Method in brief: as §1

[15] = target: Fuc(a1-2)Gal(b1-3)[Fuc(a1-4)]GlcNAc(b1-3)[Fuc(a1-3)[Gal(b1-4)]GlcNAc(b1-6)]Gal(b1-4)Glc
Method in brief: as §1

[16] = target: Fuc(a1-2)Gal(b1-3)[Fuc(a1-4)]GlcNAc(b1-3)[Gal(b1-4)GlcNAc(b1-6)]Gal(b1-4)Glc
Method in brief: as §1

Fuc(a1-2)Gal(b1-4)Glc = target: Fuc(a1-2)Gal(b1-4)Glc
Method in brief: as §1

Fuc(a1-2)Gal(b1-4)Glc6S = target: Fuc(a1-2)Gal(b1-4)Glc6S
Method in brief: as §1

Fuc(a1-2)Gal(b1-4)GlcNAc = target: Fuc(a1-2)Gal(b1-4)GlcNAc
Method in brief: as §1

[17] = target: Fuc(a1-2)Gal(b1-4)GlcNAc(b1-2)Man(a1-3)[Fuc(a1-2)Gal(b1-4)GlcNAc(b1-2)Man(a1-6)]Man(b1-4)GlcNAc(b1-4)GlcNAc
Method in brief: as §1

[18] = target: Fuc(a1-2)Gal(b1-4)GlcNAc(b1-2)Man(a1-3)[Fuc(a1-2)Gal(b1-4)GlcNAc(b1-2)Man(a1-6)]Man(b1-4)GlcNAc(b1-4)[Fuc(a1-6)]GlcNAc
Method in brief: as §1

[19] = target: Fuc(a1-2)Gal(b1-4)GlcNAc(b1-2)[Fuc(a1-2)Gal(b1-4)GlcNAc(b1-4)]Man(a1-3)[Fuc(a1-2)Gal(b1-4)GlcNAc(b1-2)Man(a1-6)]Man(b1-4)GlcNAc(b1-4)GlcNAc
Method in brief: as §1

[20] = target: Fuc(a1-2)Gal(b1-4)GlcNAc(b1-3)Gal(b1-4)GlcNAc
Method in brief: as §1

[21] = target: Fuc(a1-2)Gal(b1-4)GlcNAc(b1-3)Gal(b1-4)GlcNAc(b1-3)Gal(b1-4)GlcNAc
Method in brief: as §1

[22] = target: Fuc(a1-2)Gal(b1-4)GlcNAc(b1-3)GalNAc
Method in brief: as §1

[23] = target: Fuc(a1-2)Gal(b1-4)GlcNAc(b1-3)[Fuc(a1-2)Gal(b1-4)GlcNAc(b1-6)]GalNAc
Method in brief: as §1

[24] = target: Fuc(a1-2)Gal(b1-4)GlcNAc6S
Method in brief: as §1

B1: UEA-I (Ulex europaeus), P22972 (protein)
chain: SDDLSFKFKNFSQNGKDLSFQGDASVIETGVLQLNKVGNNLPDETGGIARYIAPIHIWNCNTGEVASFITSFSFFMETSANPKAATDGLTFFLAPPDSPLRRAGGYFGLFEDTKDNDSSYQTVAVEFDTIGSPVNFDDPGFPHIGIDVNRVKSINAERWNKRYGLNNVANVEIIYEASSKTLTASLTYPSDQTSISVTSIVDLKEILPEWVSVGFSGGTYIGRQATHEVLNWYFTSNLIN
Fuc(a1-2)Gal
  glycan array binding signal (z-score): 0.604
Fuc(a1-2)Gal(b1-3)GalNAc
  glycan array binding signal (z-score): -0.181
[1]
  glycan array binding signal (z-score): -0.176
[2]
  glycan array binding signal (z-score): -0.187
[3]
  glycan array binding signal (z-score): -0.178
[4]
  glycan array binding signal (z-score): -0.178
[5]
  glycan array binding signal (z-score): -0.19
Fuc(a1-2)Gal(b1-3)GlcNAc
  glycan array binding signal (z-score): -0.178
[6]
  glycan array binding signal (z-score): -0.168
[7]
  glycan array binding signal (z-score): -0.179
[8]
  glycan array binding signal (z-score): -0.182
[9]
  glycan array binding signal (z-score): -0.18
[10]
  glycan array binding signal (z-score): -0.185
[11]
  glycan array binding signal (z-score): -0.179
[12]
  glycan array binding signal (z-score): -0.179
[13]
  glycan array binding signal (z-score): -0.184
[14]
  glycan array binding signal (z-score): -0.17
[15]
  glycan array binding signal (z-score): -0.175
[16]
  glycan array binding signal (z-score): -0.167
Fuc(a1-2)Gal(b1-4)Glc
  glycan array binding signal (z-score): 5.21
Fuc(a1-2)Gal(b1-4)Glc6S
  glycan array binding signal (z-score): 8.13
Fuc(a1-2)Gal(b1-4)GlcNAc
  glycan array binding signal (z-score): 6.42
[17]
  glycan array binding signal (z-score): 0.889
[18]
  glycan array binding signal (z-score): -0.179
[19]
  glycan array binding signal (z-score): -0.057
[20]
  glycan array binding signal (z-score): 1.54
[21]
  glycan array binding signal (z-score): 1.43
[22]
  glycan array binding signal (z-score): -0.174
[23]
  glycan array binding signal (z-score): 0.471
[24]
  glycan array binding signal (z-score): 6.86
